Reference: PubChem BioAssay AID485364 (National Center for Advancing Translational Sciences (NCATS), 2010)
About 11,000 (3.1%) of roughly 360,000 compounds were called active. This list was built around the results that the source calls inconclusive (neither active nor inactive); the mix of calls is not that of the screen. Calls come from the whole dose curve; as a rule, active = well fitted inhibition curve with a large enough effect; inconclusive = small, poorly fitted or top-dose-only effect; inactive = no such curve, though single readings can be large or run the other way. Potencies of inconclusive entries are left out as doubtful fits.
% is set by controls: 0 for no effect and ±100 for the full control effect; potency is the fitted concentration of half-maximal effect; tags give direction and shape of the fitted curve.
Note: nearly all actives have a fitted effect of over 60% in size.

Each molecule was assayed against Schistosoma mansoni thioredoxin glutathione reductase (TGR) (UniProt Q962Y6) (assay: qHTS Assay for the Inhibitors of Schistosoma Mansoni Peroxiredoxins). Conditions: purified TGR, DTNB reduction, TNB absorbance 405 nm; activity change, negative = inhibition: at 114 µM (top of the series) unless noted.
In short: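 TGR 20 nM + NADPH 100 uM (dispensed conc.), cpd preinc 15 min RT; start with NADPH (500 uM addition) then DTNB (15 mM addition). Kinetic TNB absorbance, 405 nm filter. Four-parameter Hill fit across titration.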
With `Cc1nc2c(C)cccn2c1/C(O)=C1\C(=O)C(=O)N(CCN(C)C)C1c1ccncc1` (stereo unspecified) the Potency was inconclusive [inhibitor, partial curve, poor fit].
With `CCN(CC)c1nc2ccccc2nc1C(C#N)C(=O)NCCCOC` (stereo unspecified) the “activity change, negative = inhibition” value was inactive: -3.95%.
In the case of `CCOC(=O)C1=C(O)C(=O)N(c2ccc(S(N)(=O)=O)cc2)C1c1ccc([N+](=O)[O-])cc1` (stereo unspecified), the “activity change, negative = inhibition” value was inactive: -21.9%.
For `CC(C)(C)NC(=O)NC(=O)CSc1nncs1`, the “activity change, negative = inhibition” value was inactive: 6.36%.
With `O=C(c1sccc1-c1ccccc1)N1CCN(S(=O)(=O)c2ccccc2F)CC1` the “activity change, negative = inhibition” value was inactive: 1.99%.
For `O=C(NCc1ccccc1)C(=O)NCC(c1ccco1)S(=O)(=O)c1ccccc1` (stereo unspecified), the Potency was inconclusive [inhibitor, partial curve, poor fit].
In the case of `CS(=O)(=O)N(Cc1ccccc1)c1ccc(C(=O)NCCSCc2ccco2)cc1`, the Potency was inconclusive [inhibitor, partial curve].
For `CC(C)(CO)CNC(=O)CC1C(=O)NCCN1CC(c1ccccc1)c1ccccc1` (stereo unspecified), the Potency was inconclusive [inhibitor, full curve].
In the case of `O=C1c2ccccc2C(=O)C12OC2c1cccc2ccccc12` (stereo unspecified), the Potency was inconclusive [inhibitor, partial curve].
For `CCN1CCN(C(c2cccc(Cl)c2)c2c(O)cc(C)n(CCOC)c2=O)CC1` (stereo unspecified), the Potency was active: 5.62 µM.
With `COc1cc2c(cc1OC)CN(C(=O)c1cc(S(=O)(=O)N3CCOCC3)ccc1Cl)CC2` the Potency was inconclusive [inhibitor, partial curve].
In the case of `COC(=O)C1=C(C)NC(C)=C(C(=O)OC)C1c1ccc(-c2cccc(Cl)c2Cl)o1`, the Potency was inconclusive [inhibitor, partial curve].
`NS(=O)(=O)c1cccc(NC(=S)NCc2ccc3c(c2)OCO3)c1` was tested, and the Potency was inconclusive [inhibitor, partial curve].
In the case of `O=C(CN1C(=O)COc2ccc(S(=O)(=O)Nc3ccccc3)cc21)NCc1ccccc1Cl`, the “activity change, negative = inhibition” value was inactive: 2.1%.
For `COc1cccc(CN2CCNC(=O)C2CC(=O)N(C)CC2CCOCC2)c1OC` (stereo unspecified), the Potency was inconclusive [inhibitor, partial curve].
With `COc1ccc2c(c1)CCc1c(C(=O)N3CCCCCC3)noc1-2` the Potency was inconclusive [inhibitor, partial curve, poor fit].
With `Cc1c(/C(O)=C2\C(=O)C(=O)N(CCN(C)C)C2c2cccnc2)cnn1-c1ccccc1` (stereo unspecified) the Potency was inconclusive [inhibitor, partial curve].
`COc1ccc(S(=O)(=O)N(C)C(C)CCc2ccco2)cc1` (stereo unspecified) was tested, and the Potency was active: 20 µM.
With `CCN1C(=O)c2ccccc2Sc2ccc(NC(=O)Nc3ccc(Br)c(C)c3)cc21` the “activity change, negative = inhibition” value was inactive: -30.5%.
In the case of `COc1cccc(N2CCN(CC(=O)C34CC5CC(CC(C5)C3)C4)CC2)c1`, the Potency was inconclusive [inhibitor, partial curve].
`O=C(NC1CCCC1)C(c1ccncc1)N(Cc1cccs1)C(=O)c1csnn1` (stereo unspecified) was tested, and the Potency was inconclusive [inhibitor, partial curve, poor fit].
In the case of `O=C(CN1C(=O)c2ccccc2S1(=O)=O)c1ccccc1Cl`, the “activity change, negative = inhibition” value was inactive: -12.5%.
In the case of `CS(=O)(=O)c1nc(-c2ccco2)cc(C(F)(F)F)n1`, the Potency was inconclusive [inhibitor, full curve].
For `CCn1c(Cl)c(C=O)s/c1=N\S(=O)(=O)c1ccccc1`, the Potency was active: 0.316 µM.
In the case of `Cc1ccc(CN2CCNC(=O)C2CC(=O)N(C)C(C2CC2)C2CC2)o1` (stereo unspecified), the Potency was active: 25.1 µM.
For `CCC1Nc2ncnc(N3CCOCC3)c2N(Cc2ccc(C)cc2)C1=O` (stereo unspecified), the Potency was inconclusive [inhibitor, partial curve].
In the case of `O=C(NCc1cccs1)C(=O)NCC1OCCCN1S(=O)(=O)c1cc(F)ccc1F` (stereo unspecified), the “activity change, negative = inhibition” value was inactive: 0.746%.
With `COc1ccc(N2CCN(CC(=O)c3c(C)n(C)c4ccc(OC)cc34)CC2)cc1` the Potency was inconclusive [inhibitor, full curve].
`CC(C(=O)N1CCCC1)N(C)CC(=O)Nc1cccc(F)c1` (stereo unspecified) was tested, and the Potency was active: 8.91 µM.
In the case of `CN(C)S(=O)(=O)c1ccc(Cl)c(C(=O)NC2CCCCCCC2)c1`, the Potency was inconclusive [inhibitor, single point].
In the case of `Cc1ccc(-c2nnc(N3CCN(C(=O)c4ccco4)CC3)c3ccccc23)cc1`, the Potency was inconclusive [inhibitor, single point].
`CS(=O)(=O)c1ccccc1-c1nnc(NC(=O)C2=COCCO2)o1` was tested, and the Potency was inconclusive [inhibitor, single point].
For `O=C(/C=C/c1ccco1)Nc1cc(Cl)ccc1C(=O)O`, the Potency was inconclusive [inhibitor, partial curve].
For `Cc1cc(=O)n2c(C(=O)Nc3ccc(C)c(C)c3)c(C(=O)Nc3ccccc3)sc2n1`, the Potency was inconclusive [inhibitor, partial curve].
`CC(=O)C1(c2ccccc2)CCN(C(=O)C2CCC(=O)N(CCc3cccc(F)c3)C2)CC1` (stereo unspecified) was tested, and the Potency was inconclusive [inhibitor, full curve, poor fit].
For `CC(C)Cc1nc2n[nH]c(N)c2c2c1CCC2`, the Potency was inconclusive [inhibitor, single point].
In the case of `COc1cc(OC)nc(-n2ncc(OC)c(Br)c2=O)n1`, the Potency was inconclusive [inhibitor, partial curve].
In the case of `COc1ccc(-c2cc(C(F)(F)F)nc(S(=O)(=O)CCCC(=O)Nc3ccccc3C(F)(F)F)n2)cc1OC`, the Potency was inconclusive [inhibitor, full curve, poor fit].
With `Cc1ccc2c(c1)C(O)(CC(=O)c1cccnc1)C(=O)N2` (stereo unspecified) the Potency was inconclusive [inhibitor, partial curve].
`COc1ccc(S(=O)(=O)NCCSCc2ccco2)cc1OC` was tested, and the Potency was active: 11.2 µM.
With `O=C(O)/C(=C/c1ccco1)NC(=O)c1ccc(Br)o1` the Potency was inconclusive [inhibitor, partial curve].
In the case of `Cc1cc(O)c(C(C)C)cc1N=Cc1cc([N+](=O)[O-])ccc1O`, the Potency was inconclusive [inhibitor, full curve, poor fit].
In the case of `CC(O)c1nc2cc([N+](=O)[O-])ccc2n1Cc1ccccc1` (stereo unspecified), the “activity change, negative = inhibition” value was inactive: -3.47%.
`CC(C)(C)NC(=S)N/N=C\c1ccc(-c2ccc([N+](=O)[O-])cc2)o1` was tested, and the Potency was active: 2.24 µM.
For `CCOc1ccc2ncc3c(-c4ccccc4)nn(CC(=O)Nc4cccc(F)c4)c3c2c1`, the “activity change, negative = inhibition” value was inactive: 1.3%.
`CC#CC#Cc1cccc(=O)o1` was tested, and the Potency was active: 20 µM.
For `O=C(CSc1nc(-c2ccco2)nc2cc(=O)[nH]n12)Nc1ccccc1Cl`, the Potency was inconclusive [inhibitor, partial curve].
`Cc1ccc(C2c3cccn3CCN2S(=O)(=O)c2ccc([N+](=O)[O-])cc2)cc1` (stereo unspecified) was tested, and the Potency was inconclusive [inhibitor, partial curve].
`O=C1c2ccccc2C(=O)N1CC#CCN1CCN(C(c2ccccc2)c2ccccc2)CC1` was tested, and the Potency was active: 50.1 µM.
In the case of `COc1ccc(C(=O)NC(=S)Nc2ccc(N3CCCC3)cc2)cc1`, the “activity change, negative = inhibition” value was inactive: -2.63%.
In the case of `C(=C\c1ccccc1)/CSc1nnc(-c2cnccn2)n1Cc1ccco1`, the Potency was active: 20 µM.
With `Oc1ccc(C=Nc2ccc(N3CCOCC3)cc2)c(O)c1` the Potency was inconclusive [inhibitor, partial curve].
With `CC(/C=N/NC(=O)Cc1cccn1C)=C\c1ccccc1` the Potency was inconclusive [inhibitor, partial curve].
In the case of `Nc1nnc(SCCCC(=O)c2ccccc2)s1`, the “activity change, negative = inhibition” value was inactive: -9.45%.
With `CCOC(=O)c1cc2c(=O)n3ccccc3nc2n(Cc2ccco2)c1=NC(=O)c1ccccc1OCC` the Potency was inconclusive [inhibitor, full curve].
For `Cc1cc(C(=O)Nc2ccc3[nH]ccc3c2)no1`, the “activity change, negative = inhibition” value was inactive: -2.4%.
In the case of `COc1ccccc1CNC(=O)c1ccc(-c2ccccc2C(F)(F)F)o1`, the Potency was inconclusive [inhibitor, partial curve].
With `O=C(Nc1ccccc1)c1ccc(NCc2ccco2)c(S(=O)(=O)N2CCOCC2)c1` the Potency was active: 31.6 µM.
In the case of `O=C(NCC1CCCO1)c1nn2c(C(F)(F)F)cc(-c3cccs3)nc2c1Br` (stereo unspecified), the “activity change, negative = inhibition” value was inactive: -5.48%.
`Cc1ccc(C(=O)NC(=S)Nc2ccc(-c3ccc(CO)o3)cc2)cc1` was tested, and the Potency was inconclusive [inhibitor, partial curve].
With `CCOC(=O)CSc1nnc(NC(=O)c2ccc3c(c2)OCO3)s1` the Potency was inconclusive [inhibitor, full curve, poor fit].
For `O=C(CN1CCCN(S(=O)(=O)c2ccc(F)cc2)CC1)Nc1ccccc1Br`, the Potency was inconclusive [inhibitor, partial curve].
`O=C(/C=C/c1ccc([N+](=O)[O-])cc1)/C=C/c1ccco1` was tested, and the Potency was active: 4.47 µM.
With `COCCNC(=S)Nc1ccc(Cl)c(Cl)c1` the Potency was inconclusive [inhibitor, partial curve].
In the case of `Cc1ccc2nc(N3CCN(C(=O)C4COc5ccccc5O4)CC3)sc2c1` (stereo unspecified), the “activity change, negative = inhibition” value was inactive: 10.4%.
For `CC(C)CCC(C)NC(=O)CN1C(=O)NC(C)(c2ccc3ccccc3c2)C1=O` (stereo unspecified), the Potency was inconclusive [inhibitor, full curve, poor fit].
`Cc1ccc(C(=O)C2=C(O)C(=O)N(Cc3ccco3)C2c2cccc(Br)c2)o1` (stereo unspecified) was tested, and the Potency was active: 11.2 µM.
For `Cc1ccc(CNC(=O)c2c(Nc3c(C)cccc3C)sc(C(=O)c3ccccc3)c2N)cc1`, the “activity change, negative = inhibition” value was inactive: -35.1%.
In the case of `N/C(=N\OC(=O)c1ccc2c(c1)OCO2)c1cccc(Br)c1`, the “activity change, negative = inhibition” value was inactive: 1%.
For `Cc1cccc(NC(=O)Cn2c(=O)n(Cc3ccccc3)c(=O)c3oc4ccccc4c32)c1C`, the “activity change, negative = inhibition” value was inactive: 5.13%.
`COc1ccc(CCNC(=O)c2ccc(Cn3c(SCc4ccccc4)nc4cccnc43)cc2)cc1` was tested, and the “activity change, negative = inhibition” value was inactive: 0.191%.
